Data published in patent US11834480B2 (priority 2020, dated 2023).

Molecular target: D-form of SARS-CoV-2 HR1 (SARS CoV-2 D-HR1-biotin) (Severe acute respiratory syndrome coronavirus 2, UniProt P0DTC2)
Type: binding

| Sequence | fold improvement in binding over SEQ ID NO:11 [fold] |
| --- | --- |
| ATVKFTYQGEEKQVDISKIKYVLRIGQAIWFRYDEGGGAIGNGWVSEEDAPKELLQMLGKR [SEQ ID NO:53] | 8.8 |
| ATVKFTYQGEEKQVDISKIKYVLRIGQAIWFRYDEGGGAIGNGWVSEEDAPKELLQMLEKR [SEQ ID NO:51] | 6.5 |
